# Earlier results, collected in patent US20230117205A1, “B7-H4 ANTIBODY-DRUG CONJUGATES FOR THE TREATMENT OF CANCER” (SEAGEN INC., priority 2021, published 2023).
# Details: Phase 1 clinical trial; cited from earlier work
molecule,measurement,value
"B7H41001 (antibody, non-natural residues; cyclised or stapled) heavy: QLQLQESGPGLVKPSETLSLTCTVSGGSIKSGSYYWGWIRQPPGKGLEWIGNIYYSGSTYYNPSLRSRVTISVDTSKNQFSLKLSSVTAADTAVYYCAREGSYPNQFDPWGQGTLVTVSS[human IgG1 constant region not listed] light: EIVMTQSPATLSVSPGERATLSCRASQSVSSNLAWYQQKPGQAPRLLIYGASTRATGIPARFSGSGSGTEFTLTISSLQSEDFAVYYCQQYHSFPFTFGGGTKVEIKRTVAAPSVFIFPPSDEQLKSGTASVVCLLNNFYPREAKVQWKVDNALQSGNSQESVTEQDSKDSTYSLSSTLTLSKADYEKHKVYACEVTHQGLSSPVTKSFNRGEC",safety profile,favorable safety profile
